Reference: the supplement of paper PMC4604168 (melanoma cell lines)
The other results are listed elsewhere or left out. Most values come without repeats; read them as rough.

tested on: LOXIMVI; experiment: cell count relative to DMSO control; melanoma cells; higher = more viable cells; details: library dose: standard library concentration; 72 h
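Note: cells treated in 1,536-well plates, then fixed and DAPI-stained, with nuclei counted from automated high-throughput microscope images.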

Structure (SMILES) | cell count [%]
N#Cc1c(O)c2c(-c3ccc(-c4ccccc4O)cc3)csc2[nH]c1=O + c1cc(-c2cnn3cc(-c4ccc(OCCN5CCCCC5)cc4)cnc23)ccn1 [Dorsomorphin] (first compound 10 µM, partner dose 2 µM) | 125
Oc1nc(-c2ccc(C(F)(F)F)cc2)nc2c1CSCC2 + COc1cc(N2CCC(N3CCN(C)CC3)CC2)ccc1Nc1ncc(Cl)c(Nc2ccccc2S(=O)(=O)C(C)C)n1 [NVP-TAE684] (first compound 10 µM, partner dose 0.4 µM) | 115
COc1ccc(-c2ccc3c(N4CCOCC4)nc(N4C[C@@H](C)O[C@@H](C)C4)nc3n2)cc1CO + O=S(=O)(c1ccccc1)N(CC(F)(F)F)c1ccc(C(O)(C(F)(F)F)C(F)(F)F)cc1 [T0901317] (first compound 0.1 µM, partner dose 7 µM) | 58.3
COc1ccc(COc2ccc(Cc3cnc(N)nc3N)cc2OC)cc1 + CC(C)CCN1c2nc(Nc3cc(F)c(O)c(F)c3)ncc2N(C)C(=O)C1C [BID1870] (first compound 5 µM, partner dose 1 µM) | 57.8
c1cc(-c2cnn3cc(-c4ccc(OCCN5CCCCC5)cc4)cnc23)ccn1 [Dorsomorphin] + CC(C)CCN1c2nc(Nc3cc(F)c(O)c(F)c3)ncc2N(C)C(=O)C1C [BID1870] (first compound 2 µM, partner dose 1 µM) | 95
N#Cc1c(O)c2c(-c3ccc(-c4ccccc4O)cc3)csc2[nH]c1=O + O=c1cc(-c2cccc3c2Sc2ccccc2S3)oc(N2CCOCC2)c1 [KU55933] (first compound 10 µM, partner dose 5 µM) | 129
N#Cc1c(O)c2c(-c3ccc(-c4ccccc4O)cc3)csc2[nH]c1=O + CCN(CC)CCCCNc1ncc2cc(-c3cc(OC)cc(OC)c3)c(NC(=O)NC(C)(C)C)nc2n1 [PD173074] (first compound 10 µM, partner dose 0.5 µM) | 93.1
Oc1cc(-c2nc(-c3ccccc3)[nH]c2-c2ccncc2)ccc1Cl + Oc1nc(-c2ccc(C(F)(F)F)cc2)nc2c1CSCC2 [XAV939] (first compound 1 µM, partner dose 10 µM) | 123
O=S(=O)(c1ccccc1)N(CC(F)(F)F)c1ccc(C(O)(C(F)(F)F)C(F)(F)F)cc1 + Oc1cc(-c2nc(-c3ccccc3)[nH]c2-c2ccncc2)ccc1Cl [L779450] (first compound 7 µM, partner dose 1 µM) | 106
N#Cc1c(O)c2c(-c3ccc(-c4ccccc4O)cc3)csc2[nH]c1=O + Oc1cc(-c2nc(-c3ccccc3)[nH]c2-c2ccncc2)ccc1Cl [L779450] (first compound 10 µM, partner dose 1 µM) | 123

tested on: MEL-HO; experiment: as above; details: library dose: standard library concentration; 72 h

Structure (SMILES) | cell count [%]
Cn1cc(/C=C2\C(=O)Nc3cccnc32)c2ccccc21 + CCCCCCCCCCCC1=C(O)C(=O)C=C(O)C1=O [Embelin] (first compound 2 µM, partner dose 6 µM) | 67.7
COc1ccc2c(c1)CCC1C2CCC2(C)C(NCCCCCCN3C(=O)C=CC3=O)CCC12 (stereo not given) + CCCCCCCCCCCC1=C(O)C(=O)C=C(O)C1=O [Embelin] (first compound 2 µM, partner dose 6 µM) | 42.9
COc1cc2ncnc(Nc3ccc(Oc4ccccc4)cc3)c2cc1OC + Cn1cc(/C=C2\C(=O)Nc3cccnc32)c2ccccc21 [GW441756] (first compound 10 µM, partner dose 2 µM) | 83.7
Cc1cc([N+](=O)[O-])ccc1NS(=O)(=O)c1cc(Cl)ccc1Cl + COc1cc(N2CCC(N3CCN(C)CC3)CC2)ccc1Nc1ncc(Cl)c(Nc2ccccc2S(=O)(=O)C(C)C)n1 [NVP-TAE684] (first compound 5 µM, partner dose 0.4 µM) | 51.1
N#Cc1c(O)c2c(-c3ccc(-c4ccccc4O)cc3)csc2[nH]c1=O + COc1cc(N2CCC(N3CCN(C)CC3)CC2)ccc1Nc1ncc(Cl)c(Nc2ccccc2S(=O)(=O)C(C)C)n1 [NVP-TAE684] (first compound 10 µM, partner dose 0.4 µM) | 86.1
O=S(=O)(c1ccccc1)N(CC(F)(F)F)c1ccc(C(O)(C(F)(F)F)C(F)(F)F)cc1 + Cc1cc([N+](=O)[O-])ccc1NS(=O)(=O)c1cc(Cl)ccc1Cl [FH535] (first compound 7 µM, partner dose 5 µM) | 44.9
COc1ccc(-c2ccc3c(N4CCOCC4)nc(N4C[C@@H](C)O[C@@H](C)C4)nc3n2)cc1CO + Oc1nc(-c2ccc(C(F)(F)F)cc2)nc2c1CSCC2 [XAV939] (first compound 0.1 µM, partner dose 10 µM) | 67.7
COc1ccc(-c2ccc3c(N4CCOCC4)nc(N4C[C@@H](C)O[C@@H](C)C4)nc3n2)cc1CO + O=C1NC(=O)/C(=C/c2ccc(-c3ccc(F)cc3O)o2)S1 [AS252424] (first compound 0.1 µM, partner dose 5 µM) | 70.6
COC(=O)c1sccc1S(=O)(=O)Nc1ccc(Nc2ccccc2)cc1OC + Cc1cc([N+](=O)[O-])ccc1NS(=O)(=O)c1cc(Cl)ccc1Cl [FH535] (first compound 5 µM, partner dose 5 µM) | 48.5
CCN(CC)CCCCNc1ncc2cc(-c3cc(OC)cc(OC)c3)c(NC(=O)NC(C)(C)C)nc2n1 + Cn1cc(/C=C2\C(=O)Nc3cccnc32)c2ccccc21 [GW441756] (first compound 0.5 µM, partner dose 2 µM) | 86.4
CCN(CC)CCCCNc1ncc2cc(-c3cc(OC)cc(OC)c3)c(NC(=O)NC(C)(C)C)nc2n1 + c1cc(-c2cnn3cc(-c4ccc(OCCN5CCCCC5)cc4)cnc23)ccn1 [Dorsomorphin] (first compound 0.5 µM, partner dose 2 µM) | 101
CCN(CC)CCCCNc1ncc2cc(-c3cc(OC)cc(OC)c3)c(NC(=O)NC(C)(C)C)nc2n1 + O=C(O)C(=O)Nc1sc2c(c1C(=O)O)CCNC2 [TCS401] (first compound 0.5 µM, partner dose 8.33333 µM) | 103
COc1ccc(COc2ccc(Cc3cnc(N)nc3N)cc2OC)cc1 + O=S(=O)(c1ccccc1)N(CC(F)(F)F)c1ccc(C(O)(C(F)(F)F)C(F)(F)F)cc1 [T0901317] (first compound 5 µM, partner dose 7 µM) | 91.3
O=S(=O)(c1ccccc1)N(CC(F)(F)F)c1ccc(C(O)(C(F)(F)F)C(F)(F)F)cc1 + Cn1cc(/C=C2\C(=O)Nc3cccnc32)c2ccccc21 [GW441756] (first compound 7 µM, partner dose 2 µM) | 88.5
Cn1cc(/C=C2\C(=O)Nc3cccnc32)c2ccccc21 + CC(C)CCN1c2nc(Nc3cc(F)c(O)c(F)c3)ncc2N(C)C(=O)C1C [BID1870] (first compound 2 µM, partner dose 1 µM) | 75.6
COC(=O)c1sccc1S(=O)(=O)Nc1ccc(Nc2ccccc2)cc1OC + COc1cc2ncnc(Nc3ccc(Oc4ccccc4)cc3)c2cc1OC [SrcI1] (first compound 5 µM, partner dose 10 µM) | 82.9
O=S(=O)(c1ccccc1)N(CC(F)(F)F)c1ccc(C(O)(C(F)(F)F)C(F)(F)F)cc1 + CCCCCCCCCCCC1=C(O)C(=O)C=C(O)C1=O [Embelin] (first compound 7 µM, partner dose 6 µM) | 68.6
N#Cc1c(O)c2c(-c3ccc(-c4ccccc4O)cc3)csc2[nH]c1=O + COc1ccc(-c2ccc3c(N4CCOCC4)nc(N4C[C@@H](C)O[C@@H](C)C4)nc3n2)cc1CO [KU0063794] (first compound 10 µM, partner dose 0.1 µM) | 84.8
COc1ccc2c(c1)CCC1C2CCC2(C)C(NCCCCCCN3C(=O)C=CC3=O)CCC12 (stereo not given) + CC(C)CCN1c2nc(Nc3cc(F)c(O)c(F)c3)ncc2N(C)C(=O)C1C [BID1870] (first compound 2 µM, partner dose 1 µM) | 74.8
Oc1cc(-c2nc(-c3ccccc3)[nH]c2-c2ccncc2)ccc1Cl + O=C1NC(=O)/C(=C/c2ccc(-c3ccc(F)cc3O)o2)S1 [AS252424] (first compound 1 µM, partner dose 5 µM) | 72.2
COc1ccc2c(c1)CCC1C2CCC2(C)C(NCCCCCCN3C(=O)C=CC3=O)CCC12 (stereo not given) + c1cc(-c2cnn3cc(-c4ccc(OCCN5CCCCC5)cc4)cnc23)ccn1 [Dorsomorphin] (first compound 2 µM, partner dose 2 µM) | 99.6
Cn1cc(/C=C2\C(=O)Nc3cccnc32)c2ccccc21 + O=c1cc(-c2cccc3c2Sc2ccccc2S3)oc(N2CCOCC2)c1 [KU55933] (first compound 2 µM, partner dose 5 µM) | 78.6
O=S(=O)(c1ccccc1)N(CC(F)(F)F)c1ccc(C(O)(C(F)(F)F)C(F)(F)F)cc1 + O=c1cc(-c2cccc3c2Sc2ccccc2S3)oc(N2CCOCC2)c1 [KU55933] (first compound 7 µM, partner dose 5 µM) | 78.2
COc1ccc(COc2ccc(Cc3cnc(N)nc3N)cc2OC)cc1 + Oc1cc(-c2nc(-c3ccccc3)[nH]c2-c2ccncc2)ccc1Cl [L779450] (first compound 5 µM, partner dose 1 µM) | 76
N#Cc1c(O)c2c(-c3ccc(-c4ccccc4O)cc3)csc2[nH]c1=O + c1cc(-c2cnn3cc(-c4ccc(OCCN5CCCCC5)cc4)cnc23)ccn1 [Dorsomorphin] (first compound 10 µM, partner dose 2 µM) | 98.5
